Laboratory results taken from patent EP4636087A1, “ANTI-GPA33 ANTIBODY AND UTILIZATION THEREOF” (Kagoshima University, priority 2022, dated 2024).

System: Wnt/β-catenin signal
Assay: Wnt/β-catenin reporter EC50 in 293STF cells expressing GPA33
Type: cell-based, human
Description: The Wnt/β-catenin signal promoting activity of the anti-GPA33 antibody scFv-Rspo fragment fusion recombinant prepared in Example 18 was measured as follows. ONE-Glo™ + Tox Luciferase Reporter and Cell Viability Assay (Promega) was used for the measurement. […] The cells into which each vector was introduced were cultured for 2 days in DMEM medium containing 10% FBS (Nichirei), and then the cells were collected and seeded at 100 µL/well on a CulturPlate-96 (PerkinElmer). The next day, 100 µL of (1) control medium or (2) medium containing recombinant Rspo1FL-Fc or various anti-GPA33 antibody scFv-Rspo fragment fusion recombinant proteins prepared in Example 10 (10-fold serial dilution between 10000 and 0.001 ng/mL, final concentration 5000 to […]) was added to each well. […] The fluorescence value was measured using a Microplate Reader SH-9000 (CORONA). 100 µL of ONE-Glo (trademark) Reagent (Promega) was added to the plate and incubated at room temperature for 3 min, after which the luminescence value was measured using a NIVO microplate reader (PerkinElmer). […] Samples with low activity for which the EC50 value could not be determined were marked NC. […]
The Wnt/β-catenin signal promoting activity of the anti-GPA33 antibody scFv-Rspo fragment-Fc conjugate R1CRD-hFcm-tCAP-G17 prepared in Example 19 was measured as shown in Example 20. […]

EC50 (293STF cells expressing GPA33, Afamin/Wnt3a 883 ng/mL, 18 hr): 0.13 nM
EC50(MOG)/ EC50(GPA33) (ratio, NC assumed >30 nM): >230.1
B1: R1CRD-hFcm-tCAP-G9: conjugate of azidized R1CRD-Fcm and DBCO-G9 scFv by tCAP and click reaction (conjugate)
chain: SRGIKGKRQRRISAEGSQACAKGCELCSEVNGCLKCSPKLFILLERNDIRQVGVCLPSCPPGYFDARNPDMNKCIKCKIEHCEACFSHNFCTKCKEGLYLHKGRCYPACPEGSSAANGTMECSSPAEPKSADKTHTCPPCPAPEAEGAPSVFLFPPKPKDTLMISRTPEVTCVVVDVSHEDPEVKFNWYVDGVEVHNAKTKPREEQYNSTYRVVSVLTVLHQDWLNGKEYKCAVSNKALPASIEKTISKAKGQPREPQVYTLPPSREEMTKNQVSLTCLVKGFYPSDIAVEWESNGQPENNYKTTPPVLDSDGSFFLYSKLTVDKSRWQQGNVFSCSVMHEALHNHYTQKSLSLSPGK
scFv: QVQLVQSGGGLVKPGGSLRLSCAASGFTFSNYNMNWVRQAPGKGLEWVSSISSSGDFMYYADSVKGRFTISRDDAKNSLYLQMNSLRAEDTAVYYCAREGPGTPFDYWGQGTLVTVSSGGGGSGGGGSGSTGS[about 100 residues not written out]EPRTPRPCLVPRGSHHHHHHGA
